Among all 310,000 compounds or so, about 18,000 (5.8%) were called active. Inconclusive results, whose numbers are uncertain, are shown with a selection of clear calls. Calls follow the shape of the dose curve; as a rule, active = well fitted inhibition curve with a large enough effect; inconclusive = small, poorly fitted or top-dose-only effect, or another doubt; inactive = no such curve, though single readings can be large or run the other way. Potencies of inconclusive entries are left out as doubtful fits.
Assay: Primary qHTS for delayed death inhibitors of the malarial parasite plastid, 48 hour incubation
Conditions: P. falciparum luciferase growth in erythrocytes; series mostly up to 28.7 µM; activity change, negative = inhibition: at the top concentration
Method in brief: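 Firefly luciferase activity from engineered P. falciparum reports growth; inhibitors lower the luminescent signal. Cultures contained 2% hematocrit erythrocytes at 0.1% final parasitemia.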
% is scaled to controls: 0 for no effect and ±100 for the full control effect; potency is read from the fitted curve at half-maximal effect; tags tell the direction and shape of the fitted curve.

Which “activity change, negative = inhibition” value does the source give for Cc1ccc2oc(-c3cccc(NC(=O)Cc4cccs4)c3)nc2c1 here?
Its value is inactive: 16%.

For Cc1noc(C)c1COc1ccccc1C(=O)N1CCN(c2cccc(Cl)c2)CC1, which Potency is on record?
Its Potency is inconclusive [inhibitor, single point].

Which Potency does the source give for CC(C)CN(CCCNC(=O)CC1Oc2ccccc2NC1=O)CC(C)C (stereo not drawn) here?
Its Potency is inconclusive [inhibitor, single point].

For CC(C)N1CCN(Cc2ccc(-c3ccccc3)cc2)CC1CCO (stereo not drawn), which “activity change, negative = inhibition” value is on record?
The value was inactive: 12.8%.

Which Potency does the source give for COc1ccc(S(=O)(=O)Nc2cc3c4c(oc3c3ccccc23)CC(C)(C)CC4=O)cc1 here?
Its Potency is inconclusive [inhibitor, partial curve, poor fit].

With CCC1Oc2ccc(C)cc2N(CC(=O)N(Cc2cccnc2)Cc2cccc(F)c2)C1=O (stereo not drawn) as the compound, how does the Potency read?
Its Potency is active: 11.7 µM.

Which Potency does the source give for Cc1occc1-c1nnc(SCCCC(=O)c2ccc(F)cc2)n1C here?
Its Potency is inconclusive [inhibitor, partial curve].

For Cc1cc(/C=C2\C(=O)NC(=O)N(c3ccccc3F)C2=O)c(C)n1-c1cc(C(=O)O)cc(C(=O)O)c1, which “activity change, negative = inhibition” value is on record?
The value was inactive: -3.89%.

For COc1ccc(Nc2cccc3ccccc23)cc1, which Potency is on record?
Its Potency is inconclusive [inhibitor, single point].

Which Potency does the source give for Cc1cccc(NCC(=O)N/N=C\c2cccn2C)c1 here?
Its Potency is inconclusive [inhibitor, single point].

For CCN(CC)c1ccc(N=CN2CCOCC2)cc1, which Potency is on record?
Its Potency is inconclusive [inhibitor, single point].

Which Potency does the source give for CCOc1ccc(CN2CCN(C(=O)c3cccc4ccccc34)CC2)cc1 here?
Its Potency is inconclusive [inhibitor, single point].

With COc1cc(OC)cc(-c2c(C#Cc3ccsc3)c3cc(-c4ccc5cc[nH]c5c4)ccc3n2C)c1 as the compound, how does the Potency read?
The Potency was inconclusive [inhibitor, partial curve].

For CC1CCN(C(=S)NC(=O)c2ccccc2Br)CC1, which Potency is on record?
The Potency was inconclusive [inhibitor, single point].

For CCCCNc1c(-c2ccc(OC)c(SC3CCCCC3)c2)nc2cc(C)ccn12, which Potency is on record?
Its Potency is active: 9.28 µM.

For CC(Oc1cccc(Cl)c1)C(=O)Nc1cc(S(=O)(=O)N2CCCCC2)ccc1N1CCOCC1 (stereo not drawn), which Potency is on record?
The Potency was active: 10.4 µM.

For Cc1ccc(-c2cn(CCN)c(-c3ccc(Cl)nc3)n2)cc1, which Potency is on record?
The Potency was active: 10.4 µM.

With CC(=O)Nc1cc(-c2ccccc2)ccc1O as the compound, how does the Potency read?
The Potency was inconclusive [inhibitor, full curve].

Which Potency does the source give for COc1cc(/C=C2\CC/C(=C\c3cc(OC)c(O)c(OC)c3)C2=O)cc(OC)c1O here?
The Potency was inconclusive [inhibitor, single point].

With COC(=O)C1=CN(Cc2ccc(OC)c(OC)c2)C=C(C(=O)OC)C1c1cccc(OC)c1OC as the compound, how does the Potency read?
The Potency was inconclusive [inhibitor, full curve].

Which Potency does the source give for Cc1ccc(C)c(Cn2nnc3c(=O)[nH]c(C(=O)Nc4ccc(F)cc4)nc32)c1 here?
The Potency was inconclusive [inhibitor, single point].

With CCn1c(=O)c2cc(S(=O)(=O)NC3CCCCC3)ccc2n(CC)c1=O as the compound, how does the Potency read?
The Potency was inconclusive [inhibitor, single point].

Which Potency does the source give for COc1cc(/C=N/NC(=O)C2C3CCCCC32C)cc(Br)c1O (stereo not drawn) here?
Its Potency is inconclusive [inhibitor, partial curve].

For Cc1cccc(-n2c(-c3cccc([N+](=O)[O-])c3)nc3nc4ccccc4nc32)c1, which “activity change, negative = inhibition” value is on record?
Its value is inactive: -2.81%.

For CCCCCN(C(=O)CCC(=O)OCc1ccccc1F)c1c(N)n(CCCC)c(=O)[nH]c1=O, which Potency is on record?
Its Potency is inconclusive [inhibitor, single point].

With CS(=O)(=O)c1ccc(C(=O)Nc2ccc(S(=O)(=O)N3CCCCC3)cc2)cc1 as the compound, how does the Potency read?
The Potency was inconclusive [inhibitor, partial curve].

Which Potency does the source give for CCOc1ccc(S(=O)(=O)N2CCCC(C(=O)Nc3cccc(C)c3)C2)cc1 (stereo not drawn) here?
The Potency was inconclusive [inhibitor, partial curve, poor fit].

With COc1ccc(OC(C)C(=O)Nc2cccc([N+](=O)[O-])c2)cc1 (stereo not drawn) as the compound, how does the “activity change, negative = inhibition” value read?
The value was inactive: -6.72%.

Which Potency does the source give for CCOc1ccccc1-n1nnnc1SCC(=O)Nc1cc(C)on1 here?
Its Potency is inconclusive [inhibitor, single point].

With CCCOc1cccc(C(=O)N(Cc2ccccc2)C2CCS(=O)(=O)C2)c1 (stereo not drawn) as the compound, how does the “activity change, negative = inhibition” value read?
Its value is inactive: 2.57%.

With CN1/C(=C/C(=S)NC(=O)C2(C)CC2(Cl)Cl)C(C)(C)c2ccccc21 (stereo not drawn) as the compound, how does the Potency read?
The Potency was inconclusive [inhibitor, single point].

Which Potency does the source give for CN(Cc1ccc(Cl)cc1)C(=O)c1ccccc1SCC(=O)N1CCCC1 here?
Its Potency is inconclusive [inhibitor, single point].

For CCOc1ccc(C(C)(C)C)cc1S(=O)(=O)N1CCOCC1, which Potency is on record?
Its Potency is inconclusive [inhibitor, single point].

With COC(=O)[C@]1(CC(C)C)N[C@H](c2ccc(-c3ccc4c(c3)OCO4)cc2)[C@@H]2C(=O)N(C)C(=O)[C@@H]21 as the compound, how does the Potency read?
The Potency was inconclusive [inhibitor, single point].

Which Potency does the source give for Cc1cccc(Nc2nnc(SCC(=O)c3ccc(Br)s3)s2)c1C here?
The Potency was inconclusive [inhibitor, partial curve, poor fit].

For Cc1cccc(N/N=C/c2ccncc2)c1, which Potency is on record?
The Potency was inconclusive [inhibitor, single point].

Which “activity change, negative = inhibition” value does the source give for CCOP(=O)(OCC)c1ccc2c(c1)C(=O)c1ccccc1CC2 here?
Its value is inactive: -2.73%.

For COc1cccc(C2=CC(=O)C[C@H](c3ccc(OC)c(OC)c3)C2)c1, which Potency is on record?
The Potency was inconclusive [inhibitor, single point].

For CCc1cc(C(=O)N2CCN(S(=O)(=O)c3cc(C)ccc3C)CC2)sc1C, which Potency is on record?
Its Potency is active: 13.1 µM.

For O=C(COC(=O)c1cccnc1)c1ccc(Cl)c(Cl)c1, which “activity change, negative = inhibition” value is on record?
The value was inactive: 9.26%.

Which “activity change, negative = inhibition” value does the source give for COC(=O)c1ccccc1NC(=O)N1CCN(Cc2ccco2)CC1 here?
The value was inactive: 55.5%.

Which Potency does the source give for COc1ccc(CCC(=O)N2CCN(S(=O)(=O)c3ccc(OC)cc3)CC2)cc1 here?
Its Potency is inconclusive [inhibitor, partial curve, poor fit].

With C[C@@H](N)[C@@H](O)c1ccc(O)c(O)c1 as the compound, how does the “activity change, negative = inhibition” value read?
The value was inactive: 0.0318%.

Which Potency does the source give for COc1ccc(/C=N/n2cnnc2SCc2ccc(OC)cc2)cc1 here?
The Potency was inconclusive [inhibitor, single point].

With CCNC(=S)Nc1ccc(Cl)cc1Cl as the compound, how does the “activity change, negative = inhibition” value read?
Its value is inactive: 6.78%.

For CCn1c(SCC(=O)N(C)c2ccccc2)nc2c([nH]c3ccccc32)c1=O, which Potency is on record?
Its Potency is inconclusive [inhibitor, full curve, poor fit].

Which Potency does the source give for Cc1cc2cc(CN(Cc3ccco3)C(=O)NCc3ccccc3)c(=O)[nH]c2cc1C here?
The Potency was inconclusive [inhibitor, partial curve, poor fit].

Which Potency does the source give for CCOCCCn1c(SCc2nc3sc(C(=O)O)c(C)c3c(=O)[nH]2)nnc1-c1ccc(Cl)cc1 here?
The Potency was inconclusive [inhibitor, partial curve].

Which Potency does the source give for CCN(CC)C(=O)CSC1=C(C#N)C(c2ccco2)C(C(=O)OCCOC)=C(C)N1 (stereo not drawn) here?
Its Potency is inconclusive [inhibitor, partial curve, poor fit].

For O=C(NCCN1CCCC1)c1ccc2c(c1)N(Cc1ccccc1)C(=O)c1ccccc1S2(=O)=O, which Potency is on record?
Its Potency is active: 8.28 µM.

With Cc1ccc(Nc2nc(N)nc(CN3CCN(Cc4ccc5c(c4)OCO5)CC3)n2)cc1Cl as the compound, how does the Potency read?
The Potency was inconclusive [inhibitor, single point].

Which Potency does the source give for Cc1cc(N2CCOCC2)n2nc(C)c(-c3ccccc3Cl)c2n1 here?
Its Potency is inconclusive [inhibitor, partial curve].

With COc1cccc(NC(=O)N2CCC3(CC2)OCCO3)c1 as the compound, how does the “activity change, negative = inhibition” value read?
The value was inactive: 50.2%.

With Nc1ccc(S(=O)(=O)N2CCCC2)cc1Cl as the compound, how does the “activity change, negative = inhibition” value read?
The value was inactive: -8.78%.

With CC(C)CCSc1nc2ccccc2[nH]1 as the compound, how does the “activity change, negative = inhibition” value read?
Its value is inactive: 223%.

With CCOc1cc(C(=O)Nc2ccccc2F)cc(Br)c1OCC as the compound, how does the Potency read?
Its Potency is inconclusive [inhibitor, single point].

For COc1cccc(C(=O)Nc2nnc(Cc3ccc(OC)c(OC)c3)s2)c1, which Potency is on record?
The Potency was active: 11.7 µM.

Which Potency does the source give for Cc1ccc(N(CC(=O)NCCSc2ccccn2)S(=O)(=O)c2ccc(F)cc2)cc1 here?
Its Potency is inconclusive [inhibitor, single point].

For CCC(C)(C)NC(=O)c1ccccc1Oc1ccccc1, which Potency is on record?
The Potency was inconclusive [inhibitor, single point].

For O=C(O)CCSc1nnc(-c2ccc3c(c2)OCO3)o1, which “activity change, negative = inhibition” value is on record?
Its value is inactive: -17.9%.

For CCCC(=O)OC1CC(C)N(C(=O)c2ccccc2)c2ccc(C)cc21 (stereo not drawn), which Potency is on record?
Its Potency is inconclusive [inhibitor, partial curve, poor fit].

For O=C(/C=C/c1ccc(O)c(O)c1)O[C@@H]1C[C@](O)(C(=O)O)C[C@@H](O)[C@H]1O, which Potency is on record?
Its Potency is “inactive”.

Which “activity change, negative = inhibition” value does the source give for COc1ccc2nc(NC(=O)CSCC(=O)Nc3cc(C)on3)sc2c1 here?
The value was inactive: 56.6%.

For COC(=O)CCC(=O)OC1(C)C(=O)C2=CN(CCCCO)C(c3ccc(OC)cc3)=CC2=C(Br)C1=O (stereo not drawn), which Potency is on record?
The Potency was inconclusive [inhibitor, full curve, poor fit].

Which “activity change, negative = inhibition” value does the source give for COc1cccc(-c2cc(C(=O)N3CCN(S(=O)(=O)c4ccc(Br)cc4)CC3)[nH]n2)c1 here?
Its value is inactive: -16.9%.

For Cc1nnc(N2CCC(C(=O)N3CCCCC3)CC2)c2nn(-c3ccc(Cl)cc3)c(C)c12, which Potency is on record?
The Potency was inconclusive [inhibitor, partial curve, poor fit].

With Cc1cc(Oc2ccccc2)nc(SCC(N)=O)n1 as the compound, how does the Potency read?
The Potency was inconclusive [inhibitor, partial curve, poor fit].

For CCN(CC)S(=O)(=O)c1ccc(N2CCOCC2)c(NC(=O)c2ccc3c(c2)OCCO3)c1, which Potency is on record?
Its Potency is inconclusive [inhibitor, single point].

Source: PubChem BioAssay AID504832 (National Center for Advancing Translational Sciences (NCATS), 2011)
